# Measurements from PubChem BioAssay AID624173 (National Center for Advancing Translational Sciences (NCATS), 2012).
# In all, about 410,000 compounds went through this assay and about 490 (0.12%) were called active. This list was built around the results that the source calls inconclusive (neither active nor inactive); the mix of calls is not that of the screen. Calls follow the shape of the dose curve; as a rule, active = well fitted inhibition curve with a large enough effect; inconclusive = small, poorly fitted or top-dose-only effect; inactive = flat fitted curve, though single readings scatter. A potency beside an inconclusive call is a rough fit, not a confirmed value.
# Molecular target: pyruvate kinase (Trypanosoma brucei) (UniProt Q57TT1)
# Experiment: qHTS of Trypanosoma Brucei Inhibitors; also: nearly all actives have a fitted effect of over 50% in size
# Conditions: TbPYK enzyme, Kinase-Glo Plus ATP luminescence, 45 min; series mostly up to 76.8 µM; activity, negative = inhibition: at the top concentration
# How it was run: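 Enzyme and substrate buffer are dispensed first and compound is pin-transferred. ADP at 130 uM final then starts the reaction, which runs 45 min at room temperature. Detection reagent is added for 10 min before luminescence is imaged.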
# % is scaled to controls: 0 for no effect and ±100 for the full control effect; potency is read from the fitted curve at half-maximal effect; tags tell the direction and shape of the fitted curve.
Compound,Potency,"activity, negative = inhibition"
CCN(CC)c1ccc(-c2n[nH]c(=S)n2-c2ccccc2C)cc1,"inconclusive: 8.91 µM [inhibitor, partial curve, poor fit]",–
CC(=O)c1cccc(NC(=O)C(C)OC(=O)c2cccc(S(=O)(=O)N3CCN(C)CC3)c2)c1 (stereo not given),–,inactive: 4.91%
CC1(C)Cc2c(cnn2-c2ccc(F)cc2)C(NC(=O)CCN2CCCCC2=O)C1 (stereo not given),–,inactive: 5.34%
Cc1cccc(OCC(=O)O/N=C(\N)c2ccc(Br)cc2)c1,–,inactive: 1.34%
O=C(OCc1cc(=O)n2nc(C3CC3)sc2n1)c1cccc(NC(=O)c2ccccc2Cl)c1,–,inactive: -4.87%
CCOc1ccc2c(ccc(/C=C/c3cc(C)c4cccnc4c3O)[n+]2C)c1,"inconclusive: 31.6 µM [inhibitor, single point]",–
CCn1c(C)nc2cc(C(=O)NNC(=S)Nc3ccc(C)cc3)ccc21,–,inactive: -26.7%
COc1ccccc1C(=O)N/C(=C/c1ccco1)C(=O)Nc1cccc(C(=O)O)c1,"inconclusive: 35.5 µM [inhibitor, single point]",–
Cc1cc(C)c2cc(CN(Cc3ccc4c(c3)OCO4)Cc3nnnn3Cc3ccco3)c(=O)[nH]c2c1,–,inactive: -10.8%
Nn1c(Cc2ccc(Br)cc2)n[nH]c1=S,"inconclusive: 11.2 µM [inhibitor, partial curve]",–
CC(C)CCC(CC(C)O)c1n[nH]c(=S)n1-c1ccccc1 (stereo not given),active: 4.47 µM,–
Cc1ccc(S(=O)(=O)Nc2cc(C)c(O)c(Sc3n[nH]c(C)n3)c2)cc1,–,inactive: -17.3%
CC1CC(OP(O)(=S)c2ccc(N(C)C)cc2NC(=O)c2cccs2)CC(C)(C)C1 (stereo not given),"inconclusive: 35.5 µM [inhibitor, partial curve]",–
Cc1nc2sc(-c3ccccc3)cc2c(=O)n1N,"inconclusive: 31.6 µM [inhibitor, partial curve, poor fit]",–
CCOC(=O)c1ccc(NC(=O)c2sc3nc(N4CCOCC4)c4c(c3c2N)CCCC4)cc1,"inconclusive: 15.8 µM [inhibitor, partial curve, poor fit]",–
S=c1[nH]nc(-c2cccnc2)n1Cc1ccccc1,"inconclusive: 12.6 µM [inhibitor, partial curve]",–
S=c1[nH]nc(-c2ccco2)n1/N=C/c1ccc(Cl)cc1,active: 3.98 µM,–
COc1cc(NCCC(=O)c2cccs2)c(OC)cc1Cl,"inconclusive: 14.1 µM [inhibitor, partial curve]",–
Cc1cccc(CNC(=O)c2ccc(-c3nc(CS(=O)(=O)c4ccccc4)c(C)o3)cc2)c1,–,inactive: -12.3%
Cc1cc(-c2ccc(C)c(S(=O)(=O)N3CCN(c4ccc([N+](=O)[O-])cc4)CC3)c2)on1,–,inactive: -0.587%
O=C1NC(=O)C(c2cn(-c3ccccc3)nc2-c2ccc(F)cc2)N1 (stereo not given),"inconclusive: 50.1 µM [inhibitor, partial curve, poor fit]",–
O=C(O)CCn1cc(C=C2C(=O)NC(=S)NC2=O)c(-c2cc3ccccc3oc2=O)n1,active: 14.1 µM,–
S=c1nc[nH]c2c1ncn2C1CCCC1,"inconclusive: 31.6 µM [inhibitor, single point]",–

Compound,Potency,"activity, negative = inhibition"
CC(=O)Cn1ncc(N2CCOCC2)c(Br)c1=O,"inconclusive: 50.1 µM [inhibitor, single point]",–
Oc1ccc(-c2n[nH]c(=S)n2Cc2ccccc2)cc1,"inconclusive: 7.94 µM [inhibitor, partial curve, poor fit]",–
Cc1cc(C(F)(F)F)nn1Cc1n[nH]c(=S)n1-c1ccc(Cl)cc1,"inconclusive: 14.1 µM [inhibitor, partial curve]",–
COc1ccc(OC)c(-n2c(-c3ccc(O)cc3O)n[nH]c2=S)c1,"inconclusive: 7.08 µM [inhibitor, partial curve, poor fit]",–
COc1ccccc1C(=O)NNC(=S)Nc1ccccc1,"inconclusive: 7.94 µM [inhibitor, partial curve]",–
CCC(C(=O)NCC1CCCO1)N(C(=O)CNS(=O)(=O)c1ccccc1)c1ccc(F)cc1 (stereo not given),–,inactive: -0.625%
Cc1ccc(C)c(-n2sc3ccc(F)cc3c2=O)c1,"inconclusive: 3.98 µM [inhibitor, full curve, poor fit]",–
CCOC(=O)c1c(C)n(-c2ccccc2)c2ccc(OC(=O)c3ccccc3Cl)cc12,–,inactive: 13.8%
C=C(C1=CCN(S(=O)C(C)(C)C)[C@@H]1CCO)c1ccccc1 (stereo not given in full),–,inactive: -1.04%
O=c1c(C(c2ccc(O)cc2)c2c(O)nc3n(c2=O)CCCS3)c(O)nc2n1CCCS2,–,inactive: -16.1%
O=C(Nc1ccccc1)c1ccc2nc(-c3ccco3)c(-c3ccco3)nc2c1,"inconclusive: 22.4 µM [inhibitor, partial curve, poor fit]",–
CCOC(=O)CC(NC(=O)c1cc2cccc(OC)c2oc1=O)c1ccc(OC)cc1 (stereo not given),–,inactive: 3.61%
CCOc1ccc(CC(=O)NNC(=S)Nc2ccc(OC)c(OC)c2)cc1,"inconclusive: 31.6 µM [inhibitor, partial curve]",–
C/C(=N\Nc1nncc2ccccc12)c1cccc(OC(F)F)c1,–,inactive: -21.4%
CC(=O)c1ccc(NC(=O)c2cccc(NC(=O)N3CCSc4ncccc43)c2)cc1,–,inactive: -2.65% [at 15.4 µM]
O=c1/c(=C\c2cc([N+](=O)[O-])cc([N+](=O)[O-])c2O)sc2nc3ccccc3n12,active: 28.2 µM,–
O=C(NC1CCCCC1)c1ccc(Cn2c(SCc3cccc(F)c3)nc3cccnc32)cc1,–,inactive: -1%
O=C1NC(=O)N(c2ccccc2F)C(=O)/C1=C/c1ccc(Oc2ccc([N+](=O)[O-])cn2)cc1,"inconclusive: 20 µM [inhibitor, partial curve]",–
CCN1/C(=C/C=C/C2=[N+](CC)c3ccccc3C2(C)C)C(C)(C)c2ccccc21,"inconclusive: 28.2 µM [inhibitor, partial curve, poor fit]",–
NC(=O)c1c(Nc2nc3c(F)cccc3s2)sc2c1CCCC2,"inconclusive: 14.1 µM [inhibitor, partial curve, poor fit]",–
CC(C)(C)C1=Nn2c(nnc2-c2ccccn2)SC1,"inconclusive: 50.1 µM [inhibitor, single point]",–
S=c1[nH]nc(-c2ccc3ccccc3n2)n1-c1ccccc1,"inconclusive: 3.55 µM [inhibitor, partial curve, poor fit]",–
